Results reported in the BET-seq Pho4 binding data (Le et al. 2018).
The other results are listed elsewhere or left out. These are noisy estimates, calculated here from bound and input reads.

Biological target: T1, Pho4 (S. cerevisiae) (UniProt P07270)
T1 sequence: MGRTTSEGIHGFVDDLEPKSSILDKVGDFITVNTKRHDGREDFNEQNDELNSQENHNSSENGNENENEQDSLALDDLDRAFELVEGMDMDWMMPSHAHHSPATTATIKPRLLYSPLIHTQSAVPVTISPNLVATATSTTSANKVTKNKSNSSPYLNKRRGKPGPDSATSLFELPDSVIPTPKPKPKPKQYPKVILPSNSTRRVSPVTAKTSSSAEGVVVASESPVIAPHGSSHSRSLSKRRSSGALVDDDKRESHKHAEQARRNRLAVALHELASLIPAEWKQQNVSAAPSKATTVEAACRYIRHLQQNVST
Experiment: relative binding free energy (BET-seq); higher = weaker binding
Conditions: reference: library average

Relative binding free energy, 0.21 kcal/mol:
CTTTTCACGTGGAGTT, CTGTTCACGTGGAGGA, GTCGTCACGTGTAATT

Relative binding free energy, 0.11 kcal/mol:
GTGCACACGTGTGGTG, TTAATCACGTGTTTGA, TAGTACACGTGCGTTT, GTAAGCACGTGATTAG

Relative binding free energy, 0.33 kcal/mol:
CTTTACACGTGAGTAG, GGTATCACGTGGAAGA

Relative binding free energy, 0.23 kcal/mol:
GCGCTCACGTGTAGGG, GTTTACACGTGGAAGA

Relative binding free energy, 0.51 kcal/mol:
GTTTCCACGTGATGTT

Relative binding free energy, -0.17 kcal/mol:
GGGACCACGTGGGTGA, CAGGGCACGTGCTTGG, ATAGGCACGTGGAGAG, AATAGCACGTGTGTTA

Relative binding free energy, 0.13 kcal/mol:
AGGTGCACGTGAATAG, GAAGACACGTGTGTGG, TGTTGCACGTGTAGTC, AATCTCACGTGGTAGG, GGGTACACGTGGATGA, AGTATCACGTGTAAAT, GTTGGCACGTGGATCG, TGTATCACGTGGAAAT, GCTGGCACGTGAAGTT, GAATGCACGTGGTGGA

Relative binding free energy, 0.07 kcal/mol:
GTAGTCACGTGCTGGC, TGTGACACGTGTGGGA, CTTTACACGTGTTGCT

Relative binding free energy, 0.03 kcal/mol:
TCATACACGTGGGGAG, AGGTACACGTGGCGAT

Relative binding free energy, 0 kcal/mol:
TGAGACACGTGGCTTG, CTGTGCACGTGTGGCA, AAGGGCACGTGGTTAA, GGCCGCACGTGAGTGT, CTGGTCACGTGCGGTA, GATGACACGTGGCGTG

Relative binding free energy, -0.06 kcal/mol:
TGGAGCACGTGGTGAG, AGTTGCACGTGCTGTT, TTTTGCACGTGTTGCA, AGTGGCACGTGTTTAA

Relative binding free energy, -0.08 kcal/mol:
ATATGCACGTGGGAGC, GTGCGCACGTGTTTTA, TGGGGCACGTGTTGTT, TACTGCACGTGGGGGG

Relative binding free energy, 0.14 kcal/mol:
CTGGTCACGTGCGGAT, TTTTGCACGTGTAACG, CGGGTCACGTGGTTAG, AATGGCACGTGTAAGT, TTACTCACGTGCTGGG, GTATCCACGTGTGGTT, AACGTCACGTGTTAGT

Relative binding free energy, -0.12 kcal/mol:
CTAGGCACGTGTGGGT, TGGTGCACGTGCCAGT, GTCGGCACGTGGTGCA, CTATGCACGTGGGTAA, ATGGGCACGTGCTTAA, CGAGGCACGTGCGAGG

Relative binding free energy, 0.06 kcal/mol:
ACTGGCACGTGTGGCG, GGTCGCACGTGTGGGC, ACAGTCACGTGGAGGT

Relative binding free energy, 0.27 kcal/mol:
GTTATCACGTGATCTT, TGAAGCACGTGAATTG, TATTACACGTGAGGAG

Relative binding free energy, -0.23 kcal/mol:
CTAGGCACGTGTATGT

Relative binding free energy, -0.04 kcal/mol:
TCTTGCACGTGTTCGG, AGTGGCACGTGAGTCG, GGGGGCACGTGGGGGT, AAAGACACGTGGAGGG, ATTCGCACGTGTGGGA, TGCGGCACGTGCGGTC, GGGGCCACGTGGAGGA, GAGGGCACGTGTGCAG

Relative binding free energy, 0.34 kcal/mol:
GCACTCACGTGGTTGG

Relative binding free energy, 0.19 kcal/mol:
CTCGTCACGTGAGTGG, CTTTTCACGTGGGGTC, TTTGTCACGTGAGCCT, AATATCACGTGTGCGG, GGCTACACGTGGAGTT, GGGGACACGTGTTGTA

Relative binding free energy, 0.31 kcal/mol:
GGTTCCACGTGAGGGG, GTAGACACGTGGAAAT

Relative binding free energy, -0.14 kcal/mol:
TTAAGCACGTGGTCGG, TCGGGCACGTGCGGGC, TAAGGCACGTGGGACG, GCAGGCACGTGGAGGC

Relative binding free energy, -0.03 kcal/mol:
TTCAGCACGTGTGGTG, GAGTGCACGTGTCGTT, GACTGCACGTGGTCGG, ATTGGCACGTGTATTC, ATTGGCACGTGACTAG

Relative binding free energy, 0.26 kcal/mol:
TTCATCACGTGTTAGG, GTTTACACGTGATTCA

Relative binding free energy, -0.15 kcal/mol:
ATCTGCACGTGGTTGA, GGGCGCACGTGTTAGG

Relative binding free energy, 0.16 kcal/mol:
CAGGGCACGTGAGGGG, TGTTTCACGTGATACA, CTTATCACGTGTTAGG, GGTGACACGTGAGAGT, ATGATCACGTGTGGTG, TTCGTCACGTGTGGAT, GTGCTCACGTGTTTTG, TATGACACGTGTAATT

Relative binding free energy, 0.32 kcal/mol:
CTTTTCACGTGTTGAA, GTATTCACGTGATGAG, TTTTACACGTGAGTGA

Relative binding free energy, 0.02 kcal/mol:
GTTGCCACGTGCGTAG, GGCGGCACGTGTAATG, GGGACCACGTGTTCGG, ATAGTCACGTGGTTCG, GGGTGCACGTGTGGAT, GATTGCACGTGCGTGG, AGTAACACGTGCTATG, TGTGTCACGTGGCTGG

Relative binding free energy, 0.15 kcal/mol:
GAGGTCACGTGTGTGG, CCGTGCACGTGAAGGG, GTTGACACGTGTTTTA, TGAGTCACGTGATCTG

Relative binding free energy, 0.3 kcal/mol:
ATTTTCACGTGTTACG

Relative binding free energy, -0.09 kcal/mol:
AGGGTCACGTGGGGTG, TGTAGCACGTGGGATT

Relative binding free energy, 0.36 kcal/mol:
GGTTTCACGTGATGGA, GAATTCACGTGTTTTA, AGGATCACGTGTAAGA, GTTTCCACGTGAATGT, GGGTGCACGTGAAGTG

Relative binding free energy, 0.05 kcal/mol:
GACGGCACGTGGGAAT, TGGTGCACGTGTCCTT, TGTGTCACGTGGTTGG, ATCTGCACGTGGTGCA

Relative binding free energy, 0.38 kcal/mol:
GTATTCACGTGAGTCG

Relative binding free energy, 0.28 kcal/mol:
TTGTTCACGTGTCGCG

Relative binding free energy, 0.08 kcal/mol:
AGCTTCACGTGCGGTT, TTGTACACGTGTCGAT, TGATTCACGTGGGGAA, TTTTACACGTGTCTAG, GTTGCCACGTGTCGTG, ATTATCACGTGCTTGG

Relative binding free energy, -0.01 kcal/mol:
GTGTGCACGTGTGTAC, GAATACACGTGTTAGG, ATTGTCACGTGTCATG

Relative binding free energy, 0.01 kcal/mol:
TGTGGCACGTGATGAA, ATCTGCACGTGTTGAG, CGGAACACGTGTGGGG

Relative binding free energy, 0.17 kcal/mol:
TGTCACACGTGATGTG, GGCGTCACGTGCGGTT, ATTAGCACGTGGATCA, TAGTTCACGTGATGCT, GTTGACACGTGATGGC

Relative binding free energy, 0.42 kcal/mol:
CGGGACACGTGAGATG

Relative binding free energy, -0.19 kcal/mol:
TGACGCACGTGGGGGT, GTCGGCACGTGGGTTC

Relative binding free energy, 0.43 kcal/mol:
GTGTACACGTGAAGTG

Relative binding free energy, 0.12 kcal/mol:
CGTTTCACGTGGGCGA, ATGTGCACGTGACGGT, CGGTGCACGTGTGGCA, TATGACACGTGGAAGA, ATTTACACGTGTGCTT, CTGGTCACGTGTGTAG, CAAGTCACGTGTAGGT

Relative binding free energy, -0.05 kcal/mol:
TAATACACGTGGTGTC, AGTTGCACGTGGGTAT, GGTCGCACGTGGTCGG, TATAGCACGTGTTCTT

Relative binding free energy, -0.11 kcal/mol:
TGGCGCACGTGTGTCT, AGTAGCACGTGTCAGG, GTGAGCACGTGTGAGA

Relative binding free energy, 0.1 kcal/mol:
TGTGTCACGTGGAGAT, CTTTTCACGTGATAGT, GTGGTCACGTGTCGTC, AAGGACACGTGTATAT

Relative binding free energy, -0.28 kcal/mol:
AATGGCACGTGGAGTA

Relative binding free energy, 0.24 kcal/mol:
GCGTGCACGTGAGTGG, TTAAACACGTGAGAGG, CTATTCACGTGAGGGG, GGGGTCACGTGTCAGC

Relative binding free energy, -0.16 kcal/mol:
AGGGGCACGTGCTATT, TTAAGCACGTGCTTTG, TCGTGCACGTGGTGTG, TAATCCACGTGGGGGT

Relative binding free energy, -0.02 kcal/mol:
TTGTACACGTGTATCT, CTTTGCACGTGTGTTT, ATGTGCACGTGTCGTC, GTTAGCACGTGTCGAG

Relative binding free energy, 0.25 kcal/mol:
GTGTGCACGTGAGAAA

Relative binding free energy, 0.18 kcal/mol:
TGGATCACGTGGATGT, GTGGACACGTGTGGGT, TTGATCACGTGATTTG

Relative binding free energy, 0.39 kcal/mol:
GTTTTCACGTGTGTGA

Relative binding free energy, 0.09 kcal/mol:
GTGAACACGTGGTCTT, AATGGCACGTGTCGGC, GTAGTCACGTGCGCTT, TATGTCACGTGTGAAA, GATCGCACGTGTGGGA

Relative binding free energy, 0.29 kcal/mol:
GAAATCACGTGATTTG, GTGTTCACGTGCGGGC, GAGTGCACGTGAGTAG

Relative binding free energy, -0.2 kcal/mol:
TTTGGCACGTGCACGT

Relative binding free energy, -0.21 kcal/mol:
TTGAGCACGTGCTATG, GTACGCACGTGGGTGA

Relative binding free energy, 0.2 kcal/mol:
TATTACACGTGCATTT, AAATTCACGTGTTTAG

Relative binding free energy, -0.07 kcal/mol:
TACTGCACGTGGAGTT, GCCGGCACGTGGAGGT, GTTCGCACGTGGGCTT

Relative binding free energy, 0.04 kcal/mol:
CGGAGCACGTGTTGGA, GTGAACACGTGTTGTG, GTGGCCACGTGTGATT, CTTGACACGTGTTAAG, GTTCGCACGTGTGAGG, GGGTACACGTGGGCAA, TTGTGCACGTGGTAGA

Relative binding free energy, -0.1 kcal/mol:
GTATACACGTGCGGGT, TTTAACACGTGTTCGA, GAAAGCACGTGGCGTG, AGTTGCACGTGGGGCG

Relative binding free energy, 0.22 kcal/mol:
TCTTTCACGTGTGCGT, GAGTGCACGTGAAGGG, AACGTCACGTGATTGG, CGGATCACGTGGTAGA, TAATTCACGTGGTCTT, GGGTGCACGTGTAAAT, CAAGTCACGTGTGGGA

Relative binding free energy, -0.13 kcal/mol:
TAACGCACGTGGGTAT, ATGGGCACGTGCGAGC, AAAGGCACGTGTAGGG, TCTGGCACGTGGGCAT, TAGAGCACGTGGGTTG, AGAGGCACGTGGGTTT, GTGCGCACGTGGGTTA
